# Laboratory results published in the supplement of paper PMC12297408.
# Structures can show the parent of a compound that is named as a salt. Among all 1,300 compounds or so, about 40 (3%) showed activity. The list shows a part of the results.
# Test system: Plasmodium falciparum NF54/iGP1_RE9H ulg8 stage V gametocytes
# Assay: gametocyte viability (luciferase signal relative to DMSO control) (% of DMSO control); higher = less gametocytocidal activity, active = 50 or less
# Conditions: exposure time: 72 h
# Summary of the method: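 NF54/iGP1_RE9Hulg8 stage V gametocytes (day 12; ~2.5% gametocytemia, 3% hematocrit) in medium with 0.5% Albumax II were added to 96-well plates of nanolitre-spotted compounds (10 mM DMSO stocks), giving 10 µM or 1 µM, one well each. Plates were incubated 72 h at 37 °C. Then 90 µl was mixed with 10 µl D-luciferin (30 mg/ml) and luminescence was read on an IVIS Lumina II. Viability is relative to the mean of plate DMSO vehicle controls.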
Structure (SMILES),gametocyte viability (concentration: 1 µM),gametocyte viability (concentration: 10 µM)
Nc1cc(C(Cl)=C(Cl)Cl)c(S(N)(=O)=O)cc1S(N)(=O)=O [Clorsulon],inactive: 88.1,inactive: 84.9
O=c1oc2ccccc2c(O)c1Cc1c(O)c2ccccc2oc1=O [Dicumarol],inactive: 87.8,inactive: 88.9
Cc1nc(=O)c2cc(CN(C)c3ccc(C(=O)N[C@@H](CCC(=O)O)C(=O)O)s3)ccc2[nH]1 [Raltitrexed],inactive: 94,inactive: 87.5
CN1CCN(CCCN2c3ccccc3Sc3ccc(Cl)cc32)CC1 [Prochlorperazine dimaleate],inactive: 81.3,inactive: 78.9
CN(C)CCC[C@@]1(c2ccc(F)cc2)OCc2cc(C#N)ccc21 [Escitalopram],inactive: 95.1,inactive: 94.7
CCCC(=O)Nc1ncnc2c1ncn2[C@@H]1O[C@@H]2COP(=O)(O)O[C@H]2[C@H]1OC(=O)CCC [Bucladesine sodium salt],inactive: 90.8,inactive: 90.6
CN1CCCC(n2nc(Cc3ccc(Cl)cc3)c3ccccc3c2=O)CC1 (stereo not drawn) [Azelastine HCl],inactive: 94.7,inactive: 78.3
CN1CCCCC1CCN1c2ccccc2Sc2ccc([S+](C)[O-])cc21 (stereo not drawn) [Mesoridazine besylate],inactive: 88.9,inactive: 88.7
NC(=O)N/N=C/c1ccc([N+](=O)[O-])o1 [Nitrofural],inactive: 90.1,inactive: 89.1
CO[C@@H]1[C@@H](OC(N)=O)[C@@H](O)[C@H](Oc2ccc3c(O)c(NC(=O)c4ccc(O)c(CC=C(C)C)c4)c(=O)oc3c2C)OC1(C)C [Novobiocin sodium salt],inactive: 84.9,inactive: 79
CCN1CCN(C(=O)N[C@@H](C(=O)N[C@@H]2C(=O)N3[C@@H]2SC(C)(C)[C@@H]3C(=O)O)c2ccccc2)C(=O)C1=O [Piperacillin sodium salt],inactive: 93,inactive: 90.6
OCCN1CCN(CCCN2c3ccccc3Sc3ccc(Cl)cc32)CC1 [Perphenazine],inactive: 90.1,inactive: 63.9
CN(C)CCc1c[nH]c2ccc(Cn3cncn3)cc12 [Rizatriptan benzoate],inactive: 84.2,inactive: 84
Nc1ccc(S(=O)(=O)c2ccc(N)cc2)cc1 [Dapsone],inactive: 88.7,inactive: 85
OC[C@H]1O[C@@H](Oc2ccc(O)cc2)[C@H](O)[C@@H](O)[C@@H]1O [Arbutin],inactive: 90.2,inactive: 90.4
N=C(N)NCC1COC2(CCCCC2)O1 (stereo not drawn) [Guanadrel sulfate],inactive: 95.2,inactive: 100
CC1(C)OC(=O)NC1=O [Dimethadione],inactive: 96,inactive: 92.9
COc1ccc(NS(=O)(=O)c2ccc(N)cc2)nn1 [Sulfamethoxypyridazine],inactive: 88.6,inactive: 87.5
Nc1ccc(C(=O)NCC(=O)O)cc1 [Aminohippuric acid],inactive: 93.7,inactive: 93.3
CCC[C@H](N[C@@H](C)C(=O)N1[C@H](C(=O)O)C[C@@H]2CCCC[C@@H]21)C(=O)OCC [Perindopril],inactive: 82.4,inactive: 80.8

Structure (SMILES),gametocyte viability (concentration: 1 µM),gametocyte viability (concentration: 10 µM)
CC(=O)Oc1cccc2c1C(=O)c1c(OC(C)=O)cc(C(=O)O)cc1C2=O [Diacerein],inactive: 86,inactive: 86.2
C=C1C[C@H]2[C@@H]3C=C(C)C4=CC(=O)CC[C@]4(C)[C@H]3CC[C@]2(C)[C@@]1(OC(C)=O)C(C)=O [Melengestrol acetate],inactive: 85.4,inactive: 87.2
CC(=O)N[C@@H](CC(=O)N[C@@H](CCC(=O)O)C(=O)O)C(=O)O [Spaglumic acid],inactive: 83.5,inactive: 87.2
Cc1ccc(S(=O)(=O)NC(=O)NN2CC3CCCC3C2)cc1 (stereo not drawn) [Gliclazide],inactive: 91.8,inactive: 88.7
COc1cc2nc(N3CCN(C(=O)c4ccco4)CC3)nc(N)c2cc1OC [Prazosin hydrochloride],inactive: 90.8,active: 42.9
CCn1cc(C(=O)O)c(=O)c2cnc(N3CCNCC3)nc21 [Pipemidic acid],inactive: 98.5,inactive: 95.9
COc1nc(C)nc(Cl)c1NC1=NCCN1 [Moxonidine],inactive: 85.5,inactive: 85.8
O=C(CCCN1CC=C(n2c(=O)[nH]c3ccccc32)CC1)c1ccc(F)cc1 [Droperidol],inactive: 82.8,inactive: 90
CCN(CC)CCNC(=O)c1cc(S(C)(=O)=O)ccc1OC [Tiapride hydrochloride],inactive: 97.2,inactive: 96.1
C#CCN(C)Cc1ccccc1 [Pargyline hydrochloride],inactive: 88.2,inactive: 88.6
CCn1cc(C(=O)O)c(=O)c2ccc(C)nc21 [Nalidixic acid sodium salt],inactive: 85.8,inactive: 85.7
COc1ccc2cc(CCC(C)=O)ccc2c1 [Nabumetone],inactive: 83.3,inactive: 55
CCN(Cc1ccncc1)C(=O)C(CO)c1ccccc1 (stereo not drawn) [Tropicamide],inactive: 94.4,inactive: 90
CN(C)CCOC1=Cc2ccccc2Sc2ccc(Cl)cc21 [Zotepine],inactive: 91.1,inactive: 86
O=C(NCCNCC(O)COc1ccc(O)cc1)N1CCOCC1 (stereo not drawn) [Xamoterol hemifumarate],inactive: 89.1,inactive: 94.4
Cc1ncc([N+](=O)[O-])n1CCO [Metronidazole],inactive: 96.1,inactive: 94.3
CCN(CC)CC#CCOC(=O)C(O)(c1ccccc1)C1CCCCC1 (stereo not drawn) [Oxybutynin chloride],inactive: 85.3,inactive: 86
OC(CCN1CCCCC1)(c1ccccc1)C1CC2C=CC1C2 (stereo not drawn) [Biperiden hydrochloride],inactive: 94.5,inactive: 92.1
CN1C2CCCC1CC(NC(=O)c1nn(C)c3ccccc13)C2 (stereo not drawn) [Granisetron],inactive: 86.3,inactive: 82.3
